Results reported in PubChem BioAssay AID1508624 (National Center for Advancing Translational Sciences (NCATS), 2021).
The campaign covered roughly 48,000 compounds. About 120 (0.25%) were called active. About 4% were inconclusive and are not listed. Calls come from the whole dose curve; as a rule, active = well fitted activation curve with a large enough effect; inconclusive = small, poorly fitted or top-dose-only effect, or another doubt; inactive = no such curve, though single readings can be large or run the other way. The list shows a part of the results.

Assay: Primary qHTS for Identification of Small Molecule Activators of Huntingtin-Antisense Promoter Activity; note: nearly all actives have a fitted effect of over 55% in size
Conditions: HEK293 HTT-AS promoter firefly luciferase reporter, 24 h; series mostly up to 57.5 µM; activity change, positive = activation: at the top concentration
Source text: Assay Provider: Russell L. Margolis M.D.
Department Neurology, Johns Hopkins University School of Medicine, Baltimore, MD
Huntington's Disease (HD) is a neurodegenerative disorder caused by a CAG repeat expansion in exon 1 of huntingtin (HTT). While there are currently no disease-modifying treatments for HD, recent efforts have focused on development of nucleotide-based therapeutics to lower HTT expression. As an alternative to siRNA or oligonucleotide methods, we hypothesized that suppression of HTT expression might be accomplished by small molecules that either (1) directly decrease HTT expression by suppressing HTT promoter activity or (2) indirectly decrease HTT expression by increasing the promoter activity of HTT-AS, the gene antisense to HTT that appears to inhibit expression of HTT.
We developed and employed a high throughput screen for modifiers of HTT and HTT-AS promoter activity using luminescent reporter HEK293 cells; of the 52,041 compounds tested, we identified 898 replicable hits. We used a rigorous stepwise approach to assess compound toxicity and the capacity of the compounds to specifically lower huntingtin protein in 5 different cell lines, including HEK293 cells, HD lymphoblastoid cells, mouse primary neurons, HD iPSCs differentiated into cortical-like neurons, and HD hESCs. We found no compounds which were able to lower huntingtin without lowering cell viability in all assays, though the potential efficacy of a few compounds at non-toxic doses could not be excluded.
SEQUENCE No. (1, 2, 3, etc.); […] (e.g., Cells, Incubation, Reagent, etc.); VALUE and DESCRIPTION.
1; Reagent; 4 uL; 2,500 Hek293 luciferase reporter cells per wells
3; Compound; 23 nL; Control inhibitor / compound library
5; Reagent; 2.5 uL; Firefly Luc reagent; Dual-Glo Luciferase Reporter Assay System (Promega)
6; Time; 10 min; room temperature incubation
7; Detection; Luminescence; FLuc
NOTES (numbers refer to sequence above)
1; High-throughput screening, measuring luminescence from a Hek293 luciferase reporter, was performed in 1,536 well white-walled tissue-culture treated plates. 2,500 cells were plated in 4 µL of Opti-MEM per well using a Multidrop Combi Reagent Dispenser (ThermoFisher).
2; Assay plates were cultured for 24 hours.
3; Control inhibitor (PTC124; final concentration of 50 uM) and compound library (at final concentrations of 460 nM - 57.5 uM) were added to the assay plate using the Kalypsis Pintool Robotic System equipped with 1536 pinheads.
4; Cells were then incubated for 24 hours at 37 degrees C prior to luminescence measurements.
5; In all cases, luminescence was measured using the Dual-Glo Luciferase Reporter Assay System (Promega) following the manufacturer's instructions.
6; Room temperature incubation.
7; Luminescence signal was obtained using the PerkinElmer ViewLux plate reader. Results were normalized to vehicle control (0% activity) and zero RLU (-100% activity).

Activity change, positive = activation, inactive:
O=C(O)c1cccc(NC(=O)c2cccc(S(=O)(=O)Nc3cccc(F)c3)c2)c1 -2.91%
Cc1ccc(N2CCN(c3nc4ccccc4n4nnnc34)CC2)c(C)c1 26%
COc1cccc(C(=O)Nc2ccccc2SCc2cc(=O)c3cccc(C)c3[nH]2)c1 -4.62%
Cc1cc(C)cc(NC(=O)c2cc(S(=O)(=O)N3CCOCC3)cn2C)c1 -4.25%
Cc1ccc(Cl)cc1N1CCN(C(=O)c2cnn(-c3ccc(Cl)cc3)c2C2CCNCC2)CC1 -20.7%
N#Cc1c[nH]n2c(NC3CCCC3)c(-c3ccc(Br)cc3)nc12 4.43%
Cc1ccc(NC(=O)C2CCN(c3ncccn3)CC2)cc1F -8.86%
COc1ccccc1OCCn1c(NC(=O)c2ccccc2)nc2ccccc21 33.6%
CCc1cc2cc(OC)c(OC)cc2c(Cc2ccccc2)n1 -12.4%
CCOc1ccccc1NC(=O)C(C)n1nnc2sc3c(c2c1=O)CCCC3 (stereo not given) -0.782%
COc1ccc(NC(=O)CSc2nc3ccccc3n2CC(=O)Nc2cccc(C)c2C)cc1 -23.9%
CC1(C)S[C@@H]2[C@H](N=CN3CCCCCC3)C(=O)N2[C@H]1C(=O)O -0.977%
O=C(O)CNC(=O)CNC(=O)CNC(=O)CSC(=O)c1ccccc1 -3.4%
Cc1ccc(-n2c(SCC(N)=O)nc3c(oc4ccccc43)c2=O)cc1 -26.7%
Cc1ccc(CCNC(=O)c2ccc(Cn3c(=O)c4cccn4c4cccnc43)cc2)cc1 -20.7%
O=C(COc1cccc(Cl)c1)N1CCC(c2nc3ccccc3s2)CC1 -15%
CCn1c(CNC(=O)C23CC4CC(CC(C4)C2)C3)nnc1SCC(=O)Nc1ccc(OC)cc1 -21.6%
Cc1ccc(Cl)cc1N1CCN(S(=O)(=O)c2ccc3oc(=O)c4ncn(C)c4c3c2)CC1 -14.6%
Cc1ccccc1Cn1cc(NC(=O)c2cc(-c3ccc(Cl)cc3)on2)cn1 -2.54%
Oc1ccc(C2CCN(c3ccnc4ccccc34)CC2)cc1O -23.6%
Cc1cccc(OCC(=O)NCC2(N3CCN(C)CC3)CCCCC2)c1 -14.5%
Cc1cccc(NC(=O)CN2C(=O)COc3ccc(S(=O)(=O)Nc4ccccc4)cc32)c1C -30.3%
CCCS(=O)(=O)N1CC(=O)N(c2ccccc2C)C(C)(C(=O)NC2CCCCC2)C1 (stereo not given) -9.44%
CC(C)OCCCn1c(=O)c2ccccc2n2c(-c3ccc(F)c(F)c3)nnc12 -9.19%
Cc1ccc(S(=O)(=O)c2nnn3c2nc(NCc2ccc(F)cc2)c2sccc23)cc1C -42.9%
CCC1CN(C(=O)N2CCC(C(=O)NCc3ccc(C)o3)CC2)c2ccccc2O1 (stereo not given) -15%
COc1ccc(Nc2cc(C(=O)NCc3ccccc3)c3ccccc3n2)cc1 -15.1%
Cc1ccc(Nc2c(-c3ccc(N4CCOCC4)cc3)nc3ccc(Cl)cn23)cc1 1.31%
CCOc1ccc(C2c3c(oc4ccccc4c3=O)C(=O)N2Cc2ccc3c(c2)OCO3)cc1 (stereo not given) -12.1%
Cc1cc2c(cc1S(=O)(=O)N1CCC(C(N)=O)CC1)OCC(=O)N2 -5.47%
Cc1cc(C)c(NC(=O)Cn2nnc(-c3nc(-c4ccncc4)no3)c2N)c(C)c1 -7.5%
Cc1cccc(-c2nnn3c2nc(NCCC(C)C)c2ccccc23)c1 -5.19%
COc1cc(C(=O)OC(COCCC(C)C)CN2CCOCC2)cc(OC)c1OC (stereo not given) -2.74%
CCOC(=O)c1cccc(NC(=O)C2(S(=O)(=O)c3ccc(C)cc3)CC2)c1 -16.7%
O=C(CSc1nc2c([nH]c3ccccc32)c(=O)n1-c1cccc(C(F)(F)F)c1)N1CCCC1 -10.7%
COc1cccc(C(=O)Nc2ccc(-c3nc4ccc(C)cc4s3)cc2)c1OC -3.14%
COc1cn(CC(=O)Nc2ccc(C)cc2C)c(CN2CCCCC2)cc1=O -5.51%
CCOc1cccc(C2c3c(oc4ccc(F)cc4c3=O)C(=O)N2CCOC)c1 (stereo not given) 0.0416%
CCCNC(=O)C1CCC(Cn2c(=O)c3sccc3n(CC(=O)N3CCCC(C)C3)c2=O)CC1 (stereo not given) -6.63%
CC(=O)C1=C(c2ccc(C)cc2)N(C(C)=O)n2c(nnc2-c2ccccc2)S1 -3.65%
COc1ccc(S(=O)(=O)NCC(c2ccc(N(C)C)cc2)N2CCCC2)cc1F (stereo not given) -14.8%
CCOc1cccc2cc(-c3nc(-c4ccc(Cl)cc4)c(C)s3)c(=O)oc12 24.3%
COc1ccc(-c2ccc(NS(=O)(=O)c3ccccc3Cl)cc2)nn1 -29.2%
COc1ccc(Cn2c(CCC(=O)Nc3cccc(Cl)c3)nc3cccnc32)cc1 -32.1%
Cc1nc(N2CCOCC2)c2c(C(=O)N3CCN(c4ccc(Cl)cc4)CC3)c(C)oc2n1 -11.3%
CCOc1ccc(C(c2c(C)[nH]n(-c3ccccc3)c2=O)c2c(C)[nH]n(-c3ccccc3)c2=O)cc1OC -14.3%
COc1ccc(-c2nsc(NC(=O)c3cccc(OC)c3)n2)cc1 -22.5%
CCN(CC)CCNC(=O)c1ccc2c(=O)n3nc(Nc4cccc(Cl)c4C)sc3nc2c1 -24.5%
CCc1ccc(-c2cn3c(n2)sc2cc(C(=O)NCCCc4ccccc4)ccc23)cc1 13.8%
O=C(Nc1cccc(-c2nc3cc(Cl)ccc3o2)c1)c1ccc(F)cc1 -3.82%
O=C(Cn1c(=O)n(Cc2ccc(F)cc2)c(=O)c2sc3ccccc3c21)NCc1ccccc1 -9.11%
Cc1ccc(OCCSc2nc3ccccc3n2CC(=O)N2CCCCC2)c(C)c1 -40.6%
NC(=O)N[C@@H](CCC(=O)O)C(=O)O -5.39%
O=C(Cn1c(=O)oc2cc(S(=O)(=O)N3CCCC3)ccc21)Nc1ccc(OC(F)(F)F)cc1 -23.5%
COc1ccc(-c2nc3sc(CCNC(=O)C(=O)Nc4ccc(C)cc4C)c(C)n3n2)cc1 2.28%
Cc1ccc(NC(=O)C2CCC(CNS(=O)(=O)c3cccc4nsnc34)CC2)c(C)c1 (stereo not given) 2.29% [at 11.5 µM, percent change from vehicle, -100% = no light]
Cc1ccc(C)c(Cn2c(C(C)NC(=O)c3ccccc3)nc3ccccc32)c1 (stereo not given) -28.6%
Cc1nc2ccc(S(=O)(=O)N(CC(=O)Nc3cccc(C)c3C)Cc3ccccc3)cc2s1 -14.2%
O=C(CCn1cnc2onc(-c3ccc(F)cc3)c2c1=O)N1CCN(c2ccccc2)CC1 -19.9%
O=C(CSC1=Nc2ccccc2C2=NC(Cc3ccccc3)C(=O)N12)Nc1ccccc1 (stereo not given) 1.62%
